The record followed here is PubChem BioAssay (NCI).

In the test the test system is NCI-H322M lung. The experiment in a line: NCI-60 cell line screen, 48 h.

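How tested: cells in 96-well plates exposed to compound for 48 hours at five concentrations. GI50 = concentration required for 50% inhibition of growth. TGI is the concentration that stops growth completely.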

In turn, `CCc1cccc(C)c1NS(=O)(=O)c1ccccc1` came in with a TGI greater than 100 µM.
Molecule `O=C(Nc1ccc(N2C(=O)CSC2c2ccccc2O)cc1)c1ccc(N2C(=O)CSC2c2ccccc2O)cc1` (configuration not stated) showed a TGI greater than 100 µM.
For `COc1cccc(-c2nc3cc(NC(=O)c4ccc(Cl)c(C#N)c4)ccc3o2)c1`, the GI50 was 2.19 µM and the TGI worked out at 5.1 µM.
`N=C1C(=N)c2ccccc2-c2ccccc21.[Cl-].[Ru+2].c1ccc(-c2ccccn2)nc1.c1ccc(-c2ccccn2)nc1` displayed a TGI greater than 100 µM.
`O=C(Oc1cccnc1)c1cccnc1Nc1ccnc(C(F)(F)F)c1`: the GI50 was 18.5 µM and the TGI was found to be 52.4 µM.
In the case of `N#CC(N)=Nc1ccccc1`, the TGI was greater than 100 µM.
In turn, `O=c1[nH]cc(NCCCl)c(=O)[nH]1` gave a TGI greater than 100 µM.
Turning to `COC(=O)Cc1cc(O)c2c(c1O)C(=O)c1ccccc1C2=O`, the TGI was greater than 100 µM.
Turning to `CC(CO)Nc1cc(-c2[nH]c3cccnc3c2-c2ccc(F)cc2)ccn1` (configuration not stated), the GI50 was 14.8 µM and the TGI was greater than 25 µM.
Consider `CC(=O)Nc1ccc(-c2cc(C(=O)O)c3cc4ccccc4cc3n2)cc1`, for which the TGI is greater than 100 µM.
Molecule `Oc1cc(Cc2ccccc2)c(Cc2ccccc2)cc1O` showed a TGI greater than 10 µM.
Still for that read-out and setting: under `[N-]=[N+]=Nc1c(Cc2ccccc2)c(Cl)nc2ccccc12` stands 93.8 µM; under `Cc1ccc2nc(SCC(=O)N=Nc3c(O)[nH]c4ccccc34)n(-c3ccccc3)c(=O)c2c1`, 25.5 µM.
Still for that read-out and setting: for `CCOC(=O)c1ccc(-n2[nH]nc(C(N)=O)c2=O)cc1` the value was greater than 100 µM; for `O=C(O)CCc1nc2c(n1-c1ccccc1)C(=O)c1ccccc1C2=O`, greater than 100 µM.
With `CC1=C([Se]CC(OC(=O)CC[Se]c2ccccc2)C(=O)NC(C)(C)C)C(=O)c2ccccc2C1=O` (configuration not stated), the GI50 is 0.422 µM and the TGI came out at 2.72 µM.
Consider `CSc1ncc2c(n1)C(C#N)C1Sc3ccccc3N1C2=O` (configuration not stated), for which the TGI was greater than 100 µM.
`c1ccc(C2ONC3=NCCN32)cc1` (configuration not stated): the GI50 was 67.9 µM and the TGI is greater than 100 µM.
Molecule `O=C1C[C@H]2CCCN2[C@@H](c2ccccc2)C1` yielded a TGI greater than 100 µM.
Consider `CCCN1C(=O)NC(=O)C(CC)(N2C(=O)c3c(F)c(F)c(F)c(F)c3C2=O)C1=O` (configuration not stated), for which the GI50 is 3.67 µM and the TGI is 13.9 µM.
As to `Cc1ccc(C(=N)c2ccccc2Cc2cccc3ccccc23)c2ccccc12`, the TGI was greater than 100 µM.
Take `O=c1[nH]/c(=C/c2ccc(OCc3ccccc3)cn2)c(=O)[nH]/c1=C/c1ccccc1`: the TGI was greater than 100 µM.
In the case of `COc1ccc(N2C(=O)C3c4[nH]c5ccc(OCc6ccccc6)cc5c4C4CCC(c5ccccc5)CC4C3C2=O)cc1` (configuration not stated), the TGI was greater than 100 µM.
For `CC1=C2C(=C[C@@](C)(CO)[C@@H]2OC(=O)N(C)CCN(C)C(=O)OC(C)(C)C)C(=O)[C@](C)(O)C12CC2`, the GI50 is 7.78 µM and the TGI was determined as 30.6 µM.
On to `Cn1nc2ccc([N+](=O)[O-])c(Cn3nnc4ccccc43)c2n1`, for which the TGI is greater than 100 µM.
Same read-out and setting: for `Cc1c(OC(C)C(=O)O)ccc2c(-c3ccccc3)cc(=O)oc12` (configuration not stated) the value was greater than 100 µM.
`O=c1ncccn1[C@@H]1O[C@H](CO)[C@H](O)C1O` (some centres not stated) showed a TGI greater than 100 µM.
Turning to `CCSC1=NC2C(N(CC)C(=O)N2CC)N1/N=C/C=C/c1ccccc1[N+](=O)[O-]` (configuration not stated), the GI50 was 0.421 µM and the TGI was greater than 100 µM.
Molecule `C/C=C/C(C#N)O[Si](C)(C)C` (configuration not stated) gave a TGI greater than 100 µM.
With `CO/N=C(\COc1ccc2c(c1)[nH]c1ccccc12)c1ccc(OC)cc1`, the GI50 was 7.8 µM and the TGI is greater than 100 µM.
On the same counts, the results for `COc1cc(/C=C/C(=O)/C=C/c2cc(OC)c3c(c2)OCO3)cc2c1OCO2` are greater than 100 µM and greater than 100 µM.
Turning to `C=C1CCC2C3(C)COC(C)(C)OC3CCC2(C)C1C/C=C1/C(=O)OCC1OC(C)=O` (configuration not stated), the GI50 is 13.6 µM and the TGI was 29.2 µM.
Take `c1ccc(NN(Cc2cnccn2)c2ccccc2)cc1`: the TGI is greater than 100 µM.
The same measure, in the same setting: under `C[C@@H]1OC(=O)C[C@H]2CC(=O)N(CCC3CN(C(=O)OCc4ccccc4)c4ccccc43)C[C@@H]21` (some centres not stated) stands greater than 100 µM.
Take `O=S(=O)(Nc1ccc(Br)cc1)c1ccc(-c2cnc(C3CC3)o2)cc1`: the GI50 is 5.21 µM and the TGI was 17.9 µM.
